In PMC6212790:
The list shows a part of the results. At the low end of the ranking, values are background and their order means little.

These sequences were tested against T1, GST-Rok-C97-191 (UniProt O34857) (assay: protein binding microarray). Settings: Rok is a gene silencer of Bacillus subtilis; high values mean tight binding; most listed sequences are background and not binding sites; double strand, one strand shown.
T1 sequence: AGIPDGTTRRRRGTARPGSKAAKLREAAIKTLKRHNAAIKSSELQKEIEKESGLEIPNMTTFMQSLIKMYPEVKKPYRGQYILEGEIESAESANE
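Also: rank score from −0.5 (least bound) to 0.5 (best bound).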

Sequence	binding signal
AGTCATAG	0.16 E-score
CATCTCAC	-0.153 E-score
ATCGTGTA	0.198 E-score
AGTTTCTA	0.389 E-score
GGGACTAC	-0.0206 E-score
GAGCTTGC	-0.0383 E-score
AATAACTA	0.308 E-score
CTTAGTAC	0.221 E-score
AGCACCTC	-0.174 E-score
AGCGGTAA	0.0531 E-score
ATGTTAGG	-0.0286 E-score
ACATAAGA	0.0818 E-score
AATCTCCT	0.175 E-score
GAGGGAGA	-0.137 E-score
GACCAAAA	-0.0726 E-score
AACACAAG	-0.0133 E-score
TAGATCTA	0.298 E-score
AGGGCAGA	-0.214 E-score
CAAGCCAG	-0.34 E-score
CATACCCG	-0.13 E-score
GTATTGAC	0.246 E-score
CCTTGCAG	-0.179 E-score
ACGTCAAA	-0.0839 E-score
CCGTACAC	-0.0666 E-score
CAAGTGAC	-0.0247 E-score

Sequence	binding signal
GGCACGCA	-0.238 E-score
AAGGACCT	-0.243 E-score
ATCACGGG	-0.127 E-score
ACTCTGCT	-0.155 E-score
CCAGCGAC	0.0277 E-score
GCGCGGCA	-0.145 E-score
CTCCATAA	-0.175 E-score
TGTTTGAA	-0.0525 E-score
ATCGCTGG	-0.21 E-score
GCCGAAGC	-0.177 E-score
CCCCGGAC	-0.242 E-score
GAAAAGTA	0.308 E-score
AAATGGAA	-0.144 E-score
AGTTGACG	-0.0683 E-score
AAGATATG	0.117 E-score
ACGCAACA	0.0565 E-score
ACCTAAAT	0.179 E-score
AAAACCAG	-0.119 E-score
GTGACGAA	-0.0201 E-score
AGCCTCTC	-0.126 E-score
GAAGGCTA	-0.0559 E-score
AACAGTAA	0.285 E-score
CTTAGTCA	0.135 E-score
CCACCTTC	-0.262 E-score
TGTGAAAA	0.102 E-score

Sequence	binding signal
CGCATACA	0.138 E-score
CTGCCACA	-0.24 E-score
AGCTTCGC	-0.034 E-score
GTTAAGTA	0.215 E-score
AAACCGAT	0.0643 E-score
ATTGCCGC	-0.0476 E-score
AATTATAT	0.398 E-score
ATACTGAT	0.166 E-score
AAATGACC	0.0778 E-score
AGCGATGC	-0.0179 E-score
GAAGAGAC	0.0606 E-score
ACGCGTCA	-0.0653 E-score
CCGTGAAG	-0.225 E-score
GGGACGGA	-0.301 E-score
ATAGTATG	0.316 E-score
CACTATTA	0.202 E-score
GCCTTACC	-0.221 E-score
GTCTTGGA	0.0254 E-score
GTATAGAC	0.0493 E-score
ATGCACTA	-0.185 E-score
AGAAATAT	0.346 E-score
ACACCCTA	0.118 E-score
ACCCACCA	-0.187 E-score
AACGTTGA	0.0335 E-score
GAAAACGC	-0.192 E-score

Sequence	binding signal
GTAATGTA	0.339 E-score
CAGAAGTA	0.207 E-score
CCGATAAA	0.111 E-score
ACGGATCG	0.126 E-score
AATGAGTA	0.142 E-score
ATGTATCG	0.249 E-score
AGGCGGCA	-0.32 E-score
ATCCTTCC	-0.0429 E-score
GTGAGGAA	-0.0466 E-score
TCCCTCAA	-0.0531 E-score
GCAGTCTA	0.0117 E-score
AGCGAGTC	-0.212 E-score
AGGAACCA	0.128 E-score
CATCTGCC	-0.245 E-score
ACGCATGG	-0.0471 E-score
CAGTTGGA	-0.0642 E-score
GGTGGTTA	-0.216 E-score
TATAATGA	0.205 E-score
CACACTCG	-0.00706 E-score
GCCCTAGA	-0.198 E-score
ATTGGCTA	0.00334 E-score
ATTACGCG	-0.0188 E-score
AAGTACCT	0.312 E-score
ACAAGTCG	-0.111 E-score
GCATTAAC	0.00553 E-score

Sequence	binding signal
CGCCTCGC	-0.277 E-score
AGAATCGC	0.183 E-score
GGGCCACC	-0.312 E-score
AACAGTTC	0.116 E-score
GTCTACTA	0.29 E-score
GGATCAAC	-0.0565 E-score
ACCTTACT	0.0878 E-score
ACGACCCA	-0.0447 E-score
GACGTTTA	-0.0493 E-score
ACTCGAAT	-0.0295 E-score
GAACAATC	-0.0282 E-score
TAAGCATA	0.00925 E-score
AGTTAGCA	0.218 E-score
CTGTCTAA	-0.0901 E-score
CCGAAAGA	-0.158 E-score
ATGAATAA	0.219 E-score
CCAATACC	0.0804 E-score
CTGATAGA	0.0972 E-score
AAAGTACA	0.366 E-score
AGCGCTCA	0.00935 E-score
ATGCAACA	-0.0342 E-score
CTCGAGTC	-0.205 E-score
GAGCTTGA	-0.0815 E-score
ATTTTTCC	0.122 E-score
CCCGCCGG	-0.235 E-score

Sequence	binding signal
CACTTTGA	-0.0655 E-score
TAAACTCA	0.238 E-score
ATAACTAT	0.383 E-score
AAGCTCCC	-0.234 E-score
CCCTCCAA	-0.358 E-score
ACACTCAA	-0.00816 E-score
CAACGCCA	0.0129 E-score
CAGGTCTC	-0.144 E-score
AACGGGCA	-0.153 E-score
GCACTTAC	-0.155 E-score
ACCGACCG	-0.159 E-score
AGATGGCC	-0.153 E-score
TATAAACA	0.294 E-score
AGTTTAGC	0.199 E-score
GCATCCGC	-0.147 E-score
CGTGAACA	-0.00164 E-score
CCCGAAGG	-0.291 E-score
AATGTCAT	0.178 E-score
ATCCATTC	-0.112 E-score
ATGATCTA	0.25 E-score
GATTCGAA	-0.0962 E-score
AAATGCCA	0.168 E-score
CCCCCGAA	-0.297 E-score
CCTACCGA	0.152 E-score
AGTGTACA	0.141 E-score

Sequence	binding signal
GACTGTTA	-0.31 E-score
GAGGCAAA	-0.172 E-score
AACCGCGG	-0.114 E-score
AGCCGCAG	-0.314 E-score
CCGGTCCA	-0.171 E-score
TCAACTAA	0.0958 E-score
ATTATTGC	0.0201 E-score
ACGTAGTC	-0.268 E-score
ACGACGAC	-0.0322 E-score
AGACAAGG	-0.0106 E-score
GCGGCTAC	-0.0818 E-score
ACCTACAC	0.0632 E-score
ATATTTGC	0.295 E-score
AGACCCGC	-0.204 E-score
AACTACCT	0.412 E-score
ACCAATCA	-0.132 E-score
CAGCTGGG	-0.194 E-score
CTCTAAAC	0.13 E-score
AGGCCTTC	-0.169 E-score
CTCCATGC	-0.0936 E-score
GCGTCAAA	0.0446 E-score
AAGGAACC	-0.0467 E-score
